The whole screen tested about 220,000 compounds, of which about 5,700 (2.6%) were called active. The inconclusive results got no clear call from the source; some entries with a clear call stand among them for comparison. The call rests on the fitted dose curve; in most records, active means well fitted inhibition curve with a large enough effect; inconclusive means small, poorly fitted or top-dose-only effect; inactive means no such curve, though single readings can be large or run the other way. Potencies beside an inconclusive call are fits to weak or partial responses and may not hold up.
molecular target: Lysine-specific demethylase 5B (Homo sapiens) (UniProt Q9UGL1); test: Primary screen for KDM5B Histone Demethylases FDH-coupled qHTS; details: FDH-coupled NADH fluorescence (FDH is formaldehyde dehydrogenase); activity change, negative = inhibition: at 57.7 µM (top of the series) unless noted; further: nearly all actives have a fitted effect of over 70% in size; on activity change, negative = inhibition: 0% is about no effect
Summary of the method: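 Measured: NADH fluorescence change, 30 min, RT. System: KDM5BΔAP 200 nM final, H3K4me3 peptide, α-KG, Fe(II), ascorbate, NAD⁺ plus FDH, pH 7.5 HEPES. Compounds: titrated, 10 min pre-incubation with enzyme.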
Potency means the concentration at half of the fitted maximal effect; tags describe the fitted curve by direction and shape.

Chain of UniProt Q9UGL1 (Q9UGL1 whole entry, looked up): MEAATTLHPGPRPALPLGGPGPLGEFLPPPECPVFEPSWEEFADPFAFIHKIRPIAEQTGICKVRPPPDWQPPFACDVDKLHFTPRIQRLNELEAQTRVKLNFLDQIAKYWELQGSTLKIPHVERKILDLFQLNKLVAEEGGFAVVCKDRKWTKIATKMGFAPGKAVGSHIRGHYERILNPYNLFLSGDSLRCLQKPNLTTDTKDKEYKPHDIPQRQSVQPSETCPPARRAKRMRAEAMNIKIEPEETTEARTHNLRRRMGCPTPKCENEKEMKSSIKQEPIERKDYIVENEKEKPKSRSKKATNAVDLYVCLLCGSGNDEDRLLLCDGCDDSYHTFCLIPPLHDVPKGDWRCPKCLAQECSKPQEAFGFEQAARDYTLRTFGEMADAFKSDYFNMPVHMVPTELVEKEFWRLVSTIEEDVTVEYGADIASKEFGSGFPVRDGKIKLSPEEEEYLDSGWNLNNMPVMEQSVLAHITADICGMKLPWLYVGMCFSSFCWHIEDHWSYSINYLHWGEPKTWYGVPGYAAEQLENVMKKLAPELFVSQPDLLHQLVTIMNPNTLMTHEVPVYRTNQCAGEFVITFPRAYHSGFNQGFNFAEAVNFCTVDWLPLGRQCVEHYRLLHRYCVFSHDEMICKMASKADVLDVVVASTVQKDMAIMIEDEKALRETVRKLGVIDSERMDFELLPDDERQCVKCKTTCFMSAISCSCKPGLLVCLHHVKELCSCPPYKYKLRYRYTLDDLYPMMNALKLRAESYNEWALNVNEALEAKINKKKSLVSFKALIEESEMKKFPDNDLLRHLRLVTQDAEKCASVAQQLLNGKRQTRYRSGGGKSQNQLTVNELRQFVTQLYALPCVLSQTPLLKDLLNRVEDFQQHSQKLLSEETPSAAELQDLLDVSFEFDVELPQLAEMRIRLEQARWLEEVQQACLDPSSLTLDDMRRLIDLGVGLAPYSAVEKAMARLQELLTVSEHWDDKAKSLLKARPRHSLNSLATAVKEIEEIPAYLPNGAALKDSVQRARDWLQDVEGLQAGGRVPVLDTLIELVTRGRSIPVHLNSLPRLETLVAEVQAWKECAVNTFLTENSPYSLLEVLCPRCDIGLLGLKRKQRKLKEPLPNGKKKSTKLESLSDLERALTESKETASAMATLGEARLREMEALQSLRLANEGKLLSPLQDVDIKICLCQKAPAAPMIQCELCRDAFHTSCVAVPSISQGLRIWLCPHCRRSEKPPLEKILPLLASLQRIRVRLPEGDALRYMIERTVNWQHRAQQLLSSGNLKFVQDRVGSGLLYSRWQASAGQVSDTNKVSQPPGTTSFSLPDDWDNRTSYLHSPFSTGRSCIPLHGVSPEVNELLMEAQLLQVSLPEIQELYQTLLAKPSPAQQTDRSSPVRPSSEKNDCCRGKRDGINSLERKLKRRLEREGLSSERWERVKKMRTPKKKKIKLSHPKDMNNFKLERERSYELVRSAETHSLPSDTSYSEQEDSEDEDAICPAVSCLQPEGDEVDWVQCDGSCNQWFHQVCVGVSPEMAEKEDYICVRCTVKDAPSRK

| Structure (SMILES) | Potency | activity change, negative = inhibition |
| --- | --- | --- |
| Cc1ccc(Nc2cc(C)nc3nc(-c4ccco4)nn23)c(Cl)c1 | inconclusive: 39.8 µM [inhibitor, single point] |  |
| O=C(NC1CCCCCC1)c1csc2ccccc12 |  | inactive: -5.53% |
| Cc1ccc(C)c(N2CCN(S(=O)(=O)c3ccc4[nH]c5c(c4c3)CCCC5)CC2)c1 | inconclusive: 28.2 µM [inhibitor, partial curve, poor fit] |  |
| CN(C)C[C@@H]1CN(Cc2ccccn2)C[C@H]1NC(=O)c1n[nH]c2ccccc12 | inconclusive: 35.5 µM [inhibitor, partial curve, poor fit] |  |
| CC1CC1c1ccc(/C=C/C(=O)N(Cc2ccccc2)C2CC2)o1 (stereo not drawn) | inconclusive: 25.1 µM [inhibitor, partial curve, poor fit] |  |
| Cc1noc(C)c1CN[C@@H]1C[C@H](CO)[C@@H](O)[C@H]1O |  | inactive: -16% [at 115 µM] |
| CCOc1ccc(-n2c(C)nc3cc(C(=O)NCc4ccc(F)cc4)ccc32)cc1 |  | inactive: -21.2% |
| COc1ccc(N2CCN(c3ncccc3-c3nc(-c4ccccc4C)no3)CC2)cc1 |  | inactive: -12.7% |
| COc1ccc(Cl)cc1-c1ccc2c(c1)C(=O)N1CC[C@H](NC(=O)C3CCCC3)C[C@H]1C(=O)N2 | inconclusive: 25.1 µM [inhibitor, single point] |  |
| N/C(=N\OC(=O)CCn1cccc(C(F)(F)F)c1=O)c1ccc(Cl)cc1 | inconclusive: 28.2 µM [inhibitor, single point] |  |
| CCc1c(C)sc(NC(=O)c2ccc(Cl)cc2)c1C#N | inconclusive: 7.08 µM [inhibitor, full curve, poor fit] |  |
| CN(C)c1cccc(-c2cnc(Nc3ccc4c(c3)OCCO4)c3c2CCO3)c1 | active: 14.1 µM |  |
| CC(C)(C)c1ccc(C(=O)NCCNC(=O)c2nc3ccccc3c(=O)[nH]2)cc1 |  | inactive: -5.32% |
| CCCN(CCC)CCCNC(=O)c1cc2c(=O)[nH]c3ccccc3c2s1 | inconclusive: 25.1 µM [inhibitor, partial curve, poor fit] |  |
| COc1ccc2c(c1)C(C)=CC(C)(C)N2C(=O)Nc1cccc(Cl)c1 | inconclusive: 20 µM [inhibitor, partial curve, poor fit] |  |
| Cc1ccc(NC(=O)NCCCNc2ccccc2)cc1NC(=O)NCCCNc1ccccc1 | inconclusive: 14.1 µM [inhibitor, partial curve, poor fit] |  |
| CCc1ccc(C(c2ccccc2)c2c(C)[nH]c3ccccc23)s1 (stereo not drawn) |  | inconclusive: -54.4% [inhibitor] |
| Cc1noc(C)c1S(=O)(=O)N1CCCC(c2nn[nH]n2)C1 (stereo not drawn) | inconclusive: 14.1 µM [inhibitor, partial curve, poor fit] |  |
| O=C(Nc1cnc(-c2ccc(Cl)cc2)nc1)c1ccccc1F | inconclusive: 14.1 µM [inhibitor, partial curve] |  |
| Cc1cccc(CNC(=O)c2ccc3c(c2)N(C)CCS3)c1 | inconclusive: 25.1 µM [inhibitor, partial curve, poor fit] |  |
| CCCSc1nc2c(c(=O)[nH]1)C(C(=O)Nc1ccccc1F)CC(=O)N2 (stereo not drawn) |  | inactive: 3.43% |
| COc1ccc(-c2c(C)c3ccc(O)cc3oc2=O)cc1 | inconclusive: 22.4 µM [inhibitor, partial curve, poor fit] |  |
| O=C(c1ccc(C2CCCNC2)cc1)N1CCCN(c2ncccn2)CC1 (stereo not drawn) | inconclusive: 28.2 µM [inhibitor, partial curve, poor fit] |  |

| Structure (SMILES) | Potency | activity change, negative = inhibition |
| --- | --- | --- |
| O=c1c2c(n(Cc3cccnc3)n1-c1ccccc1)CN(CC1CCOCC1)CC2 | inconclusive: 35.5 µM [inhibitor, partial curve, poor fit] |  |
| CC(NC(=O)c1cc(-c2cccs2)nc2ccccc12)C(C)(C)C (stereo not drawn) | inconclusive: 1.78 µM [inhibitor, full curve, poor fit] |  |
| Cc1nn(C(C)C(=O)NCCc2ccccc2)c(=O)c2c1sc1ccccc12 (stereo not drawn) | inconclusive: 5.01 µM [inhibitor, partial curve, poor fit] |  |
| CCOc1cc2cc(C(=O)c3cc(C)ccc3O)cnc2cc1OC |  | inactive: -12.6% |
| N#Cc1ccc(CSCc2nc(N)nc(Nc3ccccc3)n2)cc1 |  | inactive: 8.49% |
| O=C(NCc1cccc(C(F)(F)F)c1)c1cccc2c1CCN2C(=O)C1CC1 |  | inactive: -2.03% |
| O=C(NCc1ccc(F)cc1)c1nc(-c2ccsc2)c2ccccn12 | active: 25.1 µM |  |
| Cc1cc(Cl)ccc1S(=O)(=O)N1CCC(Oc2ccc(C(N)=O)cn2)CC1 |  | inactive: -4.83% |
| COc1ccccc1NC(=O)CSc1nc2c(sc3ccccc32)c(=O)n1CCN(C)C | inconclusive: 22.4 µM [inhibitor, partial curve, poor fit] |  |
| COCCNC(=O)C(C)[C@@H]1CC[C@@]2(C)CC[C@H](NC(=O)CCOC)[C@@H](C)[C@@H]2[C@H]1O (stereo partly drawn) | inconclusive: 31.6 µM [inhibitor, partial curve] |  |
| Cc1ccc(C2(O)CCN(C(=O)c3ccc4ncccc4c3)CC2)nc1 |  | inactive: 4.09% |
| COc1ccc(C2=NOC(Cn3c(=O)c4c(ncn4C)n(C)c3=O)C2)c(OC)c1 (stereo not drawn) |  | inactive: 6.81% |
| CCCNC(=O)CNC(=O)c1cc2ccc(OC)cc2nc1C |  | inactive: 5.74% |
| N=C(N)N1CCN(c2ccccc2)CC1 |  | inactive: -3.58% |
| CC1(COc2cccnc2)COc2ccc(C(=O)NCc3ccc(F)cc3)cc2N1 (stereo not drawn) | active: 31.6 µM |  |
| COc1ccc(C2Cn3nnc(C(=O)N4CCN(C(=O)c5cccc(Cl)c5)CC4)c3CO2)cc1 (stereo not drawn) | inconclusive: 20 µM [inhibitor, partial curve, poor fit] |  |
| COCCNC(=O)Cn1c(-c2cccs2)cc2cc(Cl)ccc21 | inconclusive: 31.6 µM [inhibitor, partial curve, poor fit] |  |
| O=C(NC1CCN(c2cc(-c3ccc(F)cc3)[nH]n2)CC1)c1ccc2[nH]ccc2c1 | inconclusive: 22.4 µM [inhibitor, partial curve] |  |
| Cc1sc(C2C(C#N)=C(N)N(c3ccc(Cl)cc3)C3=C2C(=O)CCC3)cc1CN1CCOCC1 (stereo not drawn) | inconclusive: 28.2 µM [inhibitor, partial curve, poor fit] |  |
| CC(C)c1nncn1C1CCN(S(=O)(=O)c2ccc(F)c(Cl)c2)CC1 |  | inactive: 12.7% |
| COCc1ccc(C(=O)NCC2COc3cc(OC)ccc3C2)o1 (stereo not drawn) |  | inactive: 13.3% |
| Cc1cc(C)n2nc(C(=O)Nc3nc(-c4cccc(Br)c4)cs3)nc2n1 | inconclusive: 20 µM [inhibitor, partial curve, poor fit] |  |
| Cc1cccc(NC(=O)/C(C#N)=C/c2ccccc2Cl)n1 | inconclusive: 25.1 µM [inhibitor, partial curve, poor fit] |  |

| Structure (SMILES) | Potency | activity change, negative = inhibition |
| --- | --- | --- |
| CCc1ccc(CN2CCCC23Cc2ccccc2CNC3=O)cc1 (stereo not drawn) |  | inactive: 1.17% [at 149 µM] |
| CCn1cnc2c1c(=O)n(CC(=O)Nc1ccccc1N1CCCC1=O)c(=O)n2Cc1ccccc1 |  | inactive: 12.3% |
| Cc1ccc2scc(N3CCCCC3C)c(=O)c2c1 (stereo not drawn) | inconclusive: 28.2 µM [inhibitor, partial curve, poor fit] |  |
| CN1CC(=O)N(C2CCNC2)Cc2c1ncnc2N1CCC(N)CC1 (stereo not drawn) | inconclusive: 50.1 µM [inhibitor, partial curve, poor fit] |  |
| COc1ccc(NC(=O)CSc2nc3ccccc3nc2N2CCOCC2)c(OC)c1 | inconclusive: 35.5 µM [inhibitor, single point] |  |
| O=C(c1cccc(F)c1)N1CC(Oc2ccc(-c3noc(C4CCOCC4)n3)cc2)C1 |  | inactive: -2.12% |
| Cn1c(=O)c2cc(C(=O)NCCCN3CCN(c4ccc(F)cc4)CC3)sc2c2ccccc21 | inconclusive: 15.8 µM [inhibitor, partial curve, poor fit] |  |
| O=C(O)CCc1ccc(S(=O)(=O)NCc2ccco2)cc1 |  | inactive: 11.6% |
| COCCCNC(=O)c1c(NC(=O)Cc2coc3cc(C)ccc23)sc2c1CCCC2 | inconclusive: 39.8 µM [inhibitor, single point] |  |
| Clc1ccc(-c2csc3ncnc(Sc4nnc(C5CC5)o4)c23)cc1 |  | inactive: -22.8% |
| COCCc1noc(-c2ccc(NC(C)c3ncccc3C)nc2)n1 (stereo not drawn) | active: 28.2 µM |  |
| Nc1nccnc1C(=O)NCc1ccccc1CN1CCCCC1 | inconclusive: 25.1 µM [inhibitor, partial curve, poor fit] |  |
| Cc1ccc(C)c(N2CCN(CCN3CCCCC3)CC2)c1 | inconclusive: 3.98 µM [inhibitor, full curve, poor fit] |  |
| COc1ccc(C(=O)/C=C/c2cn(CC(O)CN3CCCCCC3)c3ccccc23)cc1OC (stereo not drawn) | inconclusive: 12.6 µM [inhibitor, partial curve, poor fit] |  |
| O=C(O)CCC(=O)N[C@H]1CCN2C(=O)c3cc(-c4ccccc4)ccc3NC(=O)[C@H]12 |  | inactive: -1.06% [at 86.2 µM] |
| COc1cc(C(=O)NCCc2sc(-c3ccc(C)cc3)nc2C)cc(OC)c1OC | inconclusive: 31.6 µM [inhibitor, partial curve, poor fit] |  |
| O=C(c1csc(Nc2cccc3ccccc23)n1)N1CCc2ccccc2C1 | inconclusive: 20 µM [inhibitor, single point] |  |
| CC1Oc2ccc(NC(=O)Cc3cccs3)cc2CN(Cc2ccc(Cl)cc2)C1=O (stereo not drawn) | inconclusive: 14.1 µM [inhibitor, partial curve, poor fit] |  |
| COc1cccc(N/N=C/c2cccc(Br)c2O)c1 | inconclusive: 35.5 µM [inhibitor, partial curve, poor fit] |  |
| CCOC(=O)c1ccc(NC(=O)Cn2c(N(C)Cc3ccccc3)nc(C)cc2=O)cc1 |  | inactive: -29.1% |
| COCc1nn2c(c1-c1ccccc1)NC(=O)CC2C(=O)Nc1ccc(OC)c(Cl)c1 (stereo not drawn) |  | inactive: -12.7% |
| CCNC(=O)C1(CCO)CCN(c2ncccn2)C1 (stereo not drawn) | inconclusive: 28.2 µM [inhibitor, partial curve, poor fit] |  |

Reference: PubChem BioAssay AID1347165 (National Center for Advancing Translational Sciences (NCATS), 2019)
